The record followed here is the supplement of paper PMC10037445.

Where “and” joins values, the source holds several entries; their conditions need not be identical. Identical values can stand only once. In all, about 2,900 compounds were measured (“IRF Lucia reporter activity, fold change vs agonist alone”: median about 0.9, highest 2% from about 2.8 on). The list shows a part of the results.

In assay [1] the test system is RAW-Dual. Put plainly: IRF Lucia reporter activity, fold change vs agonist alone; cytotoxicity flag (confluency mask): not cytotoxic; higher = enhanced IRF activity. The procedure, abridged:
(§1)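 After 50 nL of library stock was delivered by pin tool to RAW-Dual macrophages (50,000 cells/well, DMEM, 384-well plates), a PRR agonist was added 1 h later and the plates were kept at 37 °C, 5% CO2. Twenty hours later, IRF was read from supernatant by QuantiLuc luminescence and NF-κB by QuantiBlue absorbance at 620 nm. Reporter activity is stated as fold change over agonist-alone wells. Wells with IncuCyte confluency under 70% of agonist controls in both mask sets were counted as cytotoxic.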

In assay [2] the test system is RAW-Dual. Put plainly: IRF Lucia reporter activity, fold change vs agonist alone; higher = enhanced IRF activity. The conditions noted are these: library stock concentration (final ~1000-fold dilution): 10 mM, agonist: MPLA (TLR4) […]. The gist of the method:
as §1

Assay [3] has as its system RAW-Dual. The assay can be described thus: IRF Lucia reporter activity, fold change vs agonist alone; cytotoxicity flag (confluency mask): cytotoxic (confluency <70% of control); higher = enhanced IRF activity. The procedure, abridged: as §1
Setting [4] is: agonist: 3'3'-cGAMP (STING) 10 ug/mL.
The mark [5] stands for this setting: cytotoxicity flag (confluency mask): not cytotoxic.

Consider `CCCCC(C=O)NC(=O)C(CC(C)C)NC(=O)OCc1ccccc1` (stereo not drawn) (library stock concentration (final ~1000-fold dilution): 10 mM), for which the entries for the “IRF Lucia reporter activity” value in the assay with RAW-Dual [1] (setting [4]) and in the assay with RAW-Dual [1] (agonist: LPS (TLR4) 0.1 ug/mL) were 1.04 and 1.07, respectively.

For the compound `CCCCC(C=O)NC(=O)C(CC(C)C)NC(=O)OCc1ccccc1` (stereo not drawn), the “IRF Lucia reporter activity” value in the assay on RAW-Dual [2] (setting [5]) worked out at 1.2.

Turning to `Cc1sc2c(c1C)C(c1ccc(Cl)cc1)=NC(CC(=O)NCCCCNC(=O)COc1cccc3c1C(=O)N(C1CCC(=O)NC1=O)C3=O)c1nnc(C)n1-2` (stereo not drawn) (library stock concentration (final ~1000-fold dilution): 10 mM), the results for the “IRF Lucia reporter activity” value in the assay on RAW-Dual [3] (setting [4]) and in the assay with RAW-Dual [3] (agonist: LPS (TLR4) 0.1 ug/mL) were 0.331 and 0.23, respectively.

Consider `CCCCCCCCCCCC(CC1OC(=O)C1CCCCCC)OC(=O)C(CC(C)C)NC=O` (stereo not drawn) (library stock concentration (final ~1000-fold dilution): 10 mM), for which the “IRF Lucia reporter activity” value with RAW-Dual [1] (setting [4]) was determined as 0.931; in the assay with RAW-Dual [1] (agonist: LPS (TLR4) 0.1 ug/mL), 1.07.

On to `CCCCCCCCCCCC(CC1OC(=O)C1CCCCCC)OC(=O)C(CC(C)C)NC=O` (stereo not drawn), for which the “IRF Lucia reporter activity” value in the assay on RAW-Dual [2] (setting [5]) was 1.07.

`O=C(O)COc1ccc(Br)cc1/C=C1\SC(=S)N(Cc2cccnc2)C1=O` (library stock concentration (final ~1000-fold dilution): 10 mM): the “IRF Lucia reporter activity” value amounted to 0.91 with RAW-Dual [1] (setting [4]) and 0.792 in the assay with RAW-Dual [1] (agonist: LPS (TLR4) 0.1 ug/mL).

Consider `COC(=O)NC(C(=O)NC(Cc1ccccc1)C(O)CN(Cc1ccc(-c2ccccn2)cc1)NC(=O)C(NC(=O)OC)C(C)(C)C)C(C)(C)C.O=S(=O)(O)O` (stereo not drawn) (library stock concentration (final ~1000-fold dilution): 10 mM), for which the “IRF Lucia reporter activity” value in the assay on RAW-Dual [1] (setting [4]) is 0.777; in the assay with RAW-Dual [1] (agonist: LPS (TLR4) 0.1 ug/mL) it was 0.895.

As to `COC(=O)NC(C(=O)NC(Cc1ccccc1)C(O)CN(Cc1ccc(-c2ccccn2)cc1)NC(=O)C(NC(=O)OC)C(C)(C)C)C(C)(C)C.O=S(=O)(O)O` (stereo not drawn), the “IRF Lucia reporter activity” value in the assay with RAW-Dual [2] (setting [5]) worked out at 0.773.

`O=C(NOCC(O)CO)c1cc(Br)c(F)c(F)c1Nc1ccc(I)cc1F` (stereo not drawn): the “IRF Lucia reporter activity” value with RAW-Dual [2] (setting [5]) turned out to be 2.39.

In the case of `O=C(NOCC(O)CO)c1cc(Br)c(F)c(F)c1Nc1ccc(I)cc1F` (stereo not drawn) (library stock concentration (final ~1000-fold dilution): 10 mM), the “IRF Lucia reporter activity” value amounted to 0.713 with RAW-Dual [1] (setting [4]) and 2.11 in the assay with RAW-Dual [1] (agonist: LPS (TLR4) 0.1 ug/mL).

Turning to `CN(C)CC(c1ccc(O)cc1)C1(O)CCCCC1` (stereo not drawn) (library stock concentration (final ~1000-fold dilution): 10 mM), the “IRF Lucia reporter activity” value with RAW-Dual [1] (setting [4]) is 1.09; with RAW-Dual [1] (agonist: LPS (TLR4) 0.1 ug/mL), 0.87.

In the case of `CN(C)CC(c1ccc(O)cc1)C1(O)CCCCC1` (stereo not drawn), the “IRF Lucia reporter activity” value with RAW-Dual [2] (setting [5]) came to 0.994.

As for `OC1C=C2CCN3Cc4cc5c(cc4C(C1O)C23)OCO5` (stereo not drawn) (library stock concentration (final ~1000-fold dilution): 10 mM), the figures for the “IRF Lucia reporter activity” value in the assay with RAW-Dual [3] (setting [4]) and in the assay on RAW-Dual [3] (agonist: LPS (TLR4) 0.1 ug/mL) were 0.281 and 1.24, respectively.

Consider `OC1C=C2CCN3Cc4cc5c(cc4C(C1O)C23)OCO5` (stereo not drawn), for which the “IRF Lucia reporter activity” value in the assay on RAW-Dual [2] (cytotoxicity flag (confluency mask): cytotoxic (confluency <70% of control)) came to 1.39.

`O=C(O)CCC(=O)OCC(NC(=O)C(Cl)Cl)C(O)c1ccc([N+](=O)[O-])cc1` (stereo not drawn) (library stock concentration (final ~1000-fold dilution): 10 mM): the “IRF Lucia reporter activity” value came out at 1.01 in the assay with RAW-Dual [1] (setting [4]) and 1.4 in the assay on RAW-Dual [1] (agonist: LPS (TLR4) 0.1 ug/mL).

Consider `O=C(O)CCC(=O)OCC(NC(=O)C(Cl)Cl)C(O)c1ccc([N+](=O)[O-])cc1` (stereo not drawn), for which, in the assay with RAW-Dual [2] (setting [5]), the “IRF Lucia reporter activity” value came to 1.05.

Consider `O=C(c1ccccc1)c1ccc2n1CCC2C(=O)O` (stereo not drawn), for which the “IRF Lucia reporter activity” value in the assay with RAW-Dual [2] (setting [5]) was 0.956.

For `O=C(c1ccccc1)c1ccc2n1CCC2C(=O)O` (stereo not drawn) (library stock concentration (final ~1000-fold dilution): 10 mM), the “IRF Lucia reporter activity” value with RAW-Dual [1] (setting [4]) came to 1.08; with RAW-Dual [1] (agonist: LPS (TLR4) 0.1 ug/mL), 0.955.

On to `CCC(CC)(NC(=O)C(C)C)C(=O)NC(CCCNC(=N)N)C(=O)NC1(C(=O)NC(c2ccc(F)cc2)c2ccc(F)cc2)CCCC1` (stereo not drawn), for which, in the assay on RAW-Dual [2] (setting [5]), the “IRF Lucia reporter activity” value worked out at 1.14.

For the compound `CCC(CC)(NC(=O)C(C)C)C(=O)NC(CCCNC(=N)N)C(=O)NC1(C(=O)NC(c2ccc(F)cc2)c2ccc(F)cc2)CCCC1` (stereo not drawn) (library stock concentration (final ~1000-fold dilution): 10 mM), the figures for the “IRF Lucia reporter activity” value with RAW-Dual [1] (setting [4]) and in the assay on RAW-Dual [1] (agonist: LPS (TLR4) 0.1 ug/mL) were 1.27 and 0.857, respectively.

Regarding `Cc1cccc(-c2nc(C(C)(C)C)[nH]c2-c2ccc3nccnc3c2)n1`, in the assay with RAW-Dual [2] (setting [5]), the “IRF Lucia reporter activity” value worked out at 0.695.

As for `Cc1cccc(-c2nc(C(C)(C)C)[nH]c2-c2ccc3nccnc3c2)n1` (library stock concentration (final ~1000-fold dilution): 10 mM), the entries for the “IRF Lucia reporter activity” value in the assay on RAW-Dual [1] (setting [4]) and in the assay on RAW-Dual [1] (agonist: LPS (TLR4) 0.1 ug/mL) were 0.874 and 0.842, respectively.

Regarding `Cc1ccc(S(=O)(=O)O)cc1.Cn1cc(-c2ccc(F)c(C(F)(F)F)c2)nc1C1CCN(c2ncnc3[nH]ncc23)CC1` (library stock concentration (final ~1000-fold dilution): 10 mM), the “IRF Lucia reporter activity” value in the assay on RAW-Dual [1] (setting [4]) was determined as 0.8; with RAW-Dual [1] (agonist: LPS (TLR4) 0.1 ug/mL), 0.712.

`CC1COc2c(N3CCN(C)CC3)c(F)cc3c(=O)c(C(=O)O)cn1c23` (stereo not drawn) (library stock concentration (final ~1000-fold dilution): 10 mM): the “IRF Lucia reporter activity” value was 1.03 and 0.979 with RAW-Dual [1] (setting [4]); 0.856 and 0.868 in the assay with RAW-Dual [1] (agonist: LPS (TLR4) 0.1 ug/mL).

For `Cl.NCc1ccc(S(N)(=O)=O)cc1`, the “IRF Lucia reporter activity” value in the assay with RAW-Dual [2] (setting [5]) was found to be 0.974.

Regarding `Cl.NCc1ccc(S(N)(=O)=O)cc1` (library stock concentration (final ~1000-fold dilution): 10 mM), the “IRF Lucia reporter activity” value amounted to 1.07 with RAW-Dual [1] (setting [4]) and 1.14 with RAW-Dual [1] (agonist: LPS (TLR4) 0.1 ug/mL).

`Cc1n[nH]c2ncc(C(=O)N3CCCC3c3ccc(Cl)cc3)cc12` (stereo not drawn) (library stock concentration (final ~1000-fold dilution): 10 mM): the results for the “IRF Lucia reporter activity” value in the assay on RAW-Dual [1] (setting [4]) and in the assay with RAW-Dual [1] (agonist: LPS (TLR4) 0.1 ug/mL) were 0.178 and 0.273, respectively.
